Variants at the background level are over-represented here. Some results are limits rather than exact numbers.

84 variants from the RNAGym collection of RNA variant scans (doi:10.1073/pnas.2313332121) can be followed below.

To fix the notation:
B1: TPR 5TU (parent)
chain: GGAUCUUCUCGAUCUAACAAAAAAGACAAAUCUGCCACAAAGCUUGAGAGCAUCUUCGGAUGCAGAGGCGGCAGCCUUCGGUGGCGCGAUAGCGCCAACGUUCUCAACUAUGACACGCAAAACGCGUGCUCCGUUGAAUGGAGUUUAUCAUG

The variants in the data set derive from B1. The experiment in a line: polymerase ribozyme fitness, log enrichment relative to wild type (log ratio); higher = more active; in vitro selection for triplet polymerase activity. Summed up: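 Both subunits of a heterodimeric triplet polymerase ribozyme were given their own mutant library, built by PCR and transcribed. Each library was annealed with a biotinylated primer, the partner subunit and triplets, incubated frozen at −7 °C, and its extended constructs gel-excised, captured on streptavidin beads and amplified by RT-PCR, all in one round done in triplicate. Fitness is the logarithm of genotype enrichment relative to wild-type enrichment, with replicates averaged by inverse-variance weighting. That logarithm is base 2, and Illumina-sequenced genotypes needed ≥10 input reads and ≥1 read per output.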
A41G U55A C93U: the “polymerase ribozyme fitness (log ratio)” value is -0.68.
In the case of A41C U55G G83A G86A A97U G128A C131A, the “polymerase ribozyme fitness (log ratio)” value was at most -4.2.
For C43G U82C G83A U111G, the “polymerase ribozyme fitness (log ratio)” value is at most -4.2.
As to C43U U44G U45A C69U C85G G141A, the “polymerase ribozyme fitness (log ratio)” value was at most -4.2.
In the case of G42C C43A, the “polymerase ribozyme fitness (log ratio)” value is at most -4.2.
C43U G58U C93U: the “polymerase ribozyme fitness (log ratio)” value was at most -4.2.
The figure for C43G C105A C123G U148A is at most -4.2; for C43U A64C G92A G126C it is at most -4.2.
Consider G42A C54U A66G A142U, for which the “polymerase ribozyme fitness (log ratio)” value was at most -4.2.
Consider G42A C57U G94U C108U U109C A115U, for which the “polymerase ribozyme fitness (log ratio)” value was at most -4.2.
Consider A41C U44A A91U G100U G124C, for which the “polymerase ribozyme fitness (log ratio)” value was at most -4.2.
Regarding A41U G59U C85U C87G U145G, the “polymerase ribozyme fitness (log ratio)” value is at most -4.2.
For the variant C43G A73C G86A C93G C96A, the “polymerase ribozyme fitness (log ratio)” value was at most -4.2.
Consider C43G U53A G68A C75A C93A U104A, for which the “polymerase ribozyme fitness (log ratio)” value was at most -4.2.
Under A41C C114U U127C stands -3.96.
C43U U44A A106C C116A C131A: the “polymerase ribozyme fitness (log ratio)” value was at most -4.2.
The figure for C43U C96A is at most -4.2; for C43U C96U it is at most -4.2.
With G42C G74C U77C U135C, the “polymerase ribozyme fitness (log ratio)” value is at most -4.2.
Regarding G42C A60G, the “polymerase ribozyme fitness (log ratio)” value was -4.05.
On to A41U A120G G143A, for which the “polymerase ribozyme fitness (log ratio)” value is -2.06.
Take G42C G94C U111C: the “polymerase ribozyme fitness (log ratio)” value is at most -4.2.
For the variant G42A G88C C95A C125G, the “polymerase ribozyme fitness (log ratio)” value is at most -4.2.
Turning to A41U G48A G83C U111C, the “polymerase ribozyme fitness (log ratio)” value is at most -4.2.
Regarding C43G G84U A98C U102A G117U C118A, the “polymerase ribozyme fitness (log ratio)” value is at most -4.2.
Take C43U G70A C87A: the “polymerase ribozyme fitness (log ratio)” value was at most -4.2.
Regarding G42U G81C C125A, the “polymerase ribozyme fitness (log ratio)” value is at most -4.2.
On to A41G C75G C87G U151G, for which the “polymerase ribozyme fitness (log ratio)” value was at most -4.2.
For the variant A41C C63G A66C C87G A106C A150C, the “polymerase ribozyme fitness (log ratio)” value was at most -4.2.
With C43G C54U U78A, the “polymerase ribozyme fitness (log ratio)” value was at most -4.2.
Turning to G42C C57U A73G, the “polymerase ribozyme fitness (log ratio)” value is at most -4.2.
The figure for G42U G59U G92U is at most -4.2; for C43U A47C C54A G86A G94U it is at most -4.2.
In the case of C43A U139A G140U U145A, the “polymerase ribozyme fitness (log ratio)” value is at most -4.2.
For G42A U44A A52G C69A A107G A120U C123U G133C G140U, the “polymerase ribozyme fitness (log ratio)” value is at most -4.2.
The figure for G42C C57G G92U U145A is at most -4.2.
On to A41C G83C, for which the “polymerase ribozyme fitness (log ratio)” value is -0.571.
Under C43A U55G U56A C57U G83U G84C U102C A115U C116G G117C stands at most -4.2; under G42C U55A A64G C79G A89U C93G, at most -4.2.
Take A41U G133U U135A A142G A147U: the “polymerase ribozyme fitness (log ratio)” value is at most -4.2.
Under A41C A137C stands -3.61; under A41G U53A C85A, -2.72; under G42U U56A C75G A91U G126A U144A, at most -4.2.
Consider A41C G58C A64C G86U G117A C132A, for which the “polymerase ribozyme fitness (log ratio)” value was at most -4.2.
With C43G G68A G71A A122G G128C U130C, the “polymerase ribozyme fitness (log ratio)” value is at most -4.2.
On to G42A C54A C69U C85A U90G C116G C118G U127C, for which the “polymerase ribozyme fitness (log ratio)” value was at most -4.2.
As for C43A C87U A119C A138C, the “polymerase ribozyme fitness (log ratio)” value is at most -4.2.
For the variant A41C G42C U77G A113G, the “polymerase ribozyme fitness (log ratio)” value is at most -4.2.
A41U A89G A91C U101A: the “polymerase ribozyme fitness (log ratio)” value was at most -4.2.
For G42C C51A A64C C96A C99A, the “polymerase ribozyme fitness (log ratio)” value is at most -4.2.
A41C G42C G83A G84U A89G C116A U134G G140A G143U: the “polymerase ribozyme fitness (log ratio)” value was at most -4.2.
For A41U G68A C76U G117U, the “polymerase ribozyme fitness (log ratio)” value was at most -4.2.
The figure for G42C U90C U109A is at most -4.2.
Take A41C C105A: the “polymerase ribozyme fitness (log ratio)” value is -2.1.
Under G42U G68C C96U U104A A106C U139A stands at most -4.2; under C43U C69U U77C C85G C96A A98U C105A, at most -4.2; under A41C U56A C79A C96A C131G, at most -4.2.
Take C43U U61C A64C C72A A122U A138U U146G: the “polymerase ribozyme fitness (log ratio)” value was at most -4.2.
On to C43A C75U C76G C85U A113U C131G A138C, for which the “polymerase ribozyme fitness (log ratio)” value is at most -4.2.
For the variant A41U C87A, the “polymerase ribozyme fitness (log ratio)” value was at most -4.2.
For A41C G58C U82G A106G A137G, the “polymerase ribozyme fitness (log ratio)” value was -2.57.
Under A41G U56A C76U U77G G83C A110G U134A stands at most -4.2; under C43G U53A G84A C96A C116U, at most -4.2.
Turning to G42C A49G A138C, the “polymerase ribozyme fitness (log ratio)” value is at most -4.2.
With G42A G48A U102C C103A, the “polymerase ribozyme fitness (log ratio)” value was at most -4.2.
For A41G C57A C79U G88A A98U A120C G141A, the “polymerase ribozyme fitness (log ratio)” value was at most -4.2.
For the variant G42A C116G, the “polymerase ribozyme fitness (log ratio)” value was -3.99.
On to G42A C51A G81U A91U A97U G126U, for which the “polymerase ribozyme fitness (log ratio)” value was at most -4.2.
In the case of C43U A91C, the “polymerase ribozyme fitness (log ratio)” value was at most -4.2.
The figure for A41C C63G A64C U111C is at most -4.2.
For the variant A41C C57U C96U, the “polymerase ribozyme fitness (log ratio)” value is -0.458.
Under C43U C93U A106U stands at most -4.2; under C43U A73C G81A C93G, at most -4.2; under G42A U53G C72U C95U A107U C132A, at most -4.2.
For A41G U146G, the “polymerase ribozyme fitness (log ratio)” value was -0.0573.
With C43A U55A G81U A98U G112C G117A G133C, the “polymerase ribozyme fitness (log ratio)” value was at most -4.2.
As to C43A A47C G68A G84U A122C, the “polymerase ribozyme fitness (log ratio)” value is at most -4.2.
Under C43U A52C U56A C87A A113C stands at most -4.2; under G42C G80C C93A U104A C108G U145A U146C, at most -4.2; under A41G G59A U61A, -0.462.
With G42C C54G C96G A113U U144C, the “polymerase ribozyme fitness (log ratio)” value is at most -4.2.
For G42C C79G G81A C85A G112A A138G U146A, the “polymerase ribozyme fitness (log ratio)” value was at most -4.2.
Take A41G G94U C125U G141A A150C: the “polymerase ribozyme fitness (log ratio)” value was at most -4.2.
The figure for C43U A52C A91C C96G U127C is at most -4.2.
